The campaign covered roughly 280,000 compounds. About 1,100 (0.39%) were called active. The shares of active, inactive and inconclusive entries below differ from those in the screen. Calls come from the whole dose curve; as a rule, active = well fitted inhibition curve with a large enough effect; inconclusive = small, poorly fitted or top-dose-only effect, or effect the other way; inactive = flat fitted curve, though single readings scatter. Potencies of inconclusive entries are left out as doubtful fits.
Target: Microtubule-associated protein tau (Homo sapiens) (UniProt P10636)
Experiment: qHTS for Inhibitors of Tau Fibril Formation, Fluorescence Polarization; note: nearly all actives have a fitted effect of over 55% in size
Conditions: K18 P301L tau heparin fibrillization, Alexa594 FP, 6 h; series mostly up to 57.7 µM; activity, negative = inhibition: at the top concentration
Summary of the method: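 FP of Alexa 594-tau after heparin (20 uM) induction. Substrate: human K18 P301L, 15 uM unlabeled, 0.24 uM labeled. Buffer 100 mM sodium acetate pH 7. 6 hr, 37 C.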
% is set by controls: 0 for no effect and ±100 for the full control effect; potency is the fitted concentration of half-maximal effect; tags give direction and shape of the fitted curve.

Sequence of UniProt P10636 (P10636 whole entry, looked up): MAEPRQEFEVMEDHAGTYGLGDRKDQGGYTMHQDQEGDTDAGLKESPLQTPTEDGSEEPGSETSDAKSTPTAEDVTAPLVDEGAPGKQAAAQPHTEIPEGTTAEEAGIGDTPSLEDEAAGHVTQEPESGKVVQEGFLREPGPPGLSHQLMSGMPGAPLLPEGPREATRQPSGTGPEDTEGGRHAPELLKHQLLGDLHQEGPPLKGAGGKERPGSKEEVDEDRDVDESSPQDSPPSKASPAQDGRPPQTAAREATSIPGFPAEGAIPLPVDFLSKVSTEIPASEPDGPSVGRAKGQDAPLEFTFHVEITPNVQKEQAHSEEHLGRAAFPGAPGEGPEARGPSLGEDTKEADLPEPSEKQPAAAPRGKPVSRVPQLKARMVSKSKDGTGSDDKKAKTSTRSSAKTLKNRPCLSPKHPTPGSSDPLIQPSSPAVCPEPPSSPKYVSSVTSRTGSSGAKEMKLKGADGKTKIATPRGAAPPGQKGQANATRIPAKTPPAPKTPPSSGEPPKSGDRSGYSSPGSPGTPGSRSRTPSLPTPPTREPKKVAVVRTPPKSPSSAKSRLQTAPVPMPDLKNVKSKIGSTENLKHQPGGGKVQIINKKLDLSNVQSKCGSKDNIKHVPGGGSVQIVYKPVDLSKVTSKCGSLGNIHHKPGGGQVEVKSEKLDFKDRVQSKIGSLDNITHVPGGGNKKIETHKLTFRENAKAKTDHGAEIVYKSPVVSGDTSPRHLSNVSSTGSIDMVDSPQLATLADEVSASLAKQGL

SMILES	Potency	activity, negative = inhibition
Fc1ccc(Nc2nc(Nc3ccc(F)cc3)nc(N3CCOCC3)n2)cc1	inconclusive [inhibitor, single point]	–
Cc1cccc(N2C(=O)CC(Sc3ccccc3C(=O)O)C2=O)c1 (stereo unspecified)	–	inactive: -1.71%
Cc1ccc2oc3c(c(=O)c2c1)C(c1ccc(OCC(N)=O)cc1)N(Cc1ccc2c(c1)OCO2)C3=O (stereo unspecified)	–	inactive: -1.04%
O=c1[nH]c2c(s1)C=Nc1ccccc1N2	–	inactive: -10.1%
c1ccc2c(c1)[nH]c1c(N3CCCC3)ncnc12	–	inactive: 13.5%
N#Cc1cc(-c2ccccc2)[nH]c1-c1nccc2ccccc12	inconclusive [inhibitor, single point]	–
CC(C)CC(=O)Nc1nc2ccc(S(C)(=O)=O)cc2s1	–	inactive: 1.65%
COCCOC(=O)c1c(C)oc2ccc(NS(=O)(=O)c3ccc(C)cc3)cc12	–	inactive: 3.14%
COCCNC(=O)c1ccc2c(c1)NC(=O)C(CS(=O)(=O)Cc1ccc(F)cc1Cl)N2 (stereo unspecified)	inconclusive [inhibitor, partial curve]	–
O=C1C2=C(Nc3ccccc3SC2c2ccc(C(F)(F)F)cc2)c2ccccc21 (stereo unspecified)	active: 10 µM	–
Nc1c(C(=O)NCc2ccco2)sc2nc(N3CCOCC3)c3c(c12)CCCC3	inconclusive [inhibitor, single point]	–
COc1ccc(-c2nc(NC(=O)C3CC(=O)N(c4ccc5c(c4)OCCO5)C3)sc2C)cc1 (stereo unspecified)	inconclusive [activator, single point]	–
O=C(O)c1ccccc1/C=N/N1CCN(C2c3ccccc3-c3ccccc32)CC1	–	inactive: -6.69%
COc1ccc(OC)c(NC(=O)Nc2cccc(OCc3cc(=O)n4cc(C)ccc4n3)c2)c1	inconclusive [activator, partial curve, poor fit]	–
CC(=O)OCCCn1c(C)[n+](C)c2cc(Cl)c(Cl)cc21	–	inactive: 1.52%
CCCCN1C(=O)C(NC(=O)c2ccc(C(C)(C)C)cc2)(C(F)(F)F)C(C(=O)OC)=C1C (stereo unspecified)	–	inactive: -3.99%
COc1cccc(Nc2nc(-c3cccs3)nc3ccccc23)c1	active: 25.1 µM	–
Cc1cc(O)c(C(c2ccc(F)cc2)N2CCN(c3ccccc3)CC2)c(=O)n1Cc1ccco1 (stereo unspecified)	–	inactive: 2.03%
COc1ccc(OC)c(/C=N/N=C2\SCC(=O)N2Cc2ccco2)c1	inconclusive [inhibitor, single point]	–
Cc1ccc(O)c(NC2=C(Cl)C(=O)N(Cc3ccccc3)C2=O)c1	inconclusive [inhibitor, single point]	–
O=c1oc2cc([N+](=O)[O-])ccc2nc1/C=C(O)/C=C/c1ccccc1	inconclusive [inhibitor, single point]	–
Cc1ccc(N2CCN(c3ncnc4onc(-c5ccc(F)cc5)c34)CC2)c(C)c1	–	inactive: -0.324%
COC(=O)c1sc(S(=O)(=O)NCC(=O)O)c(C(=O)OC)c1C	inconclusive [inhibitor, full curve, poor fit]	–
COc1ccc(OC)c(C(=O)CN2C(=O)N(c3cc(C)cc(C)c3)S(=O)(=O)c3ccccc32)c1	inconclusive [inhibitor, single point]	–

SMILES	Potency	activity, negative = inhibition
Clc1cccc(-n2ncc3c(NCCC4=CCCCC4)ncnc32)c1	inconclusive [inhibitor, partial curve]	–
C/C(=N\NC(=O)OC(C)(C)C)c1cccc([N+](=O)[O-])c1	inconclusive [inhibitor, single point]	–
CC(C)(C)OC(=O)N1CCC(c2c(C(=O)NCCN3CCOCC3)cnn2-c2cccc(F)c2)CC1	–	inactive: -6.13%
Cc1cccc(NC(=O)CN(c2ccc(F)cc2)S(C)(=O)=O)c1	–	inactive: 8.52%
Cc1ccc(Cl)cc1-n1c(=O)c2sc3ccccc3c2n(CC(=O)NC2CCCC2)c1=O	inconclusive [inhibitor, partial curve, poor fit]	–
FCCCOc1ccc(-c2nccc(-c3ccc(F)cc3)n2)cc1	inconclusive [inhibitor, partial curve]	–
O=C(CSc1nnc2ccccn12)Nc1ccc(S(=O)(=O)N2CCOCC2)cc1	–	inactive: -3.24%
COC(=O)C1C(=O)/C(=C/N(C)C)C(=O)CC1(C)C (stereo unspecified)	inconclusive [inhibitor, single point]	–
Cc1ccc(CCNC(=O)Cn2ncc3c([nH]c4ccccc43)c2=O)cc1	inconclusive [inhibitor, single point]	–
COc1ccc(CCNC(=O)c2cccc(S(=O)(=O)N3CCCCC3)c2)cc1	inconclusive [inhibitor, full curve, poor fit]	–
O=C(CCS(=O)(=O)c1cccs1)Nc1ccc(C(=O)NC2CCN(Cc3ccccc3)CC2)cc1	–	inactive: -14%
Cc1cccc(-n2ccnc2SCC(=O)N2CCCc3ccccc32)c1C	inconclusive [inhibitor, single point]	–
COc1ccc(-c2nnc(SCC#N)o2)cc1	–	inactive: 4.25%
O=C(Nc1cccc(-c2nnc(-c3ccco3)o2)c1)C(c1ccccc1)c1ccccc1	inconclusive [inhibitor, partial curve]	–
COc1ccc([N+](=O)[O-])cc1NC(=O)CSc1nc(C)c(C)c(C)n1	–	inactive: 2.22%
CCOC(=O)c1[nH]c2ccc(OC)cc2c1NC(=O)c1cccc(OC)c1	inconclusive [activator, single point]	–
Cc1ccc(N=Cc2cc(Br)cc(Cl)c2O)cc1	inconclusive [inhibitor, partial curve]	–
Nc1cccc(Oc2c(F)c(F)c(Oc3cccc(N)c3)c(F)c2F)c1	inconclusive [activator, partial curve]	–
Cc1ccc(Nc2nc(-c3ccc(S(=O)(=O)N4CCOCC4)cc3)cs2)cc1Cl	inconclusive [activator, single point]	–
CC(CNC(=O)c1sc2ncccc2c1-n1cccc1)c1ccccc1 (stereo unspecified)	–	inactive: -3.8%
O=C(CCNS(=O)(=O)c1cccc2nonc12)NC1CCCCCC1	–	inactive: -2.72%
CC1CCCN(C2=C(Cl)C(=O)N(c3cccc(Cl)c3)C2=O)C1 (stereo unspecified)	active: 17.8 µM	–
CCN(C(=S)NC(=O)c1ccccc1Br)C1CCCCC1	–	inactive: -10.6%
Cn1nc(C(C)(C)C)cc1NC(=O)Nc1ccc(Cl)cc1	inconclusive [inhibitor, single point]	–

SMILES	Potency	activity, negative = inhibition
COC(=O)c1ccc(NC(=O)C(=O)N2CCN(C(=S)NCCc3ccccc3)CC2)cc1	inconclusive [inhibitor, single point]	–
COc1ccccc1CCNC(=O)Cc1c(C)c2c(O)cc(C)cc2oc1=O	inconclusive [inhibitor, partial curve, poor fit]	–
CN(CC(=O)Nc1cc(S(=O)(=O)N2CCCC2)ccc1Cl)Cc1cccs1	–	inactive: 6.65%
Cc1ccc(C(=O)Nc2ccc(C)c(S(=O)(=O)Nc3ccccc3Cl)c2)s1	inconclusive [inhibitor, partial curve]	–
O=C(Nc1nc2ccccc2s1)c1cc2c(s1)-c1ccccc1OC2	inconclusive [inhibitor, single point]	–
COc1ccc2c(c1)C1=C(CC2)C(c2ccc(C)cc2)NC(=S)N1 (stereo unspecified)	–	inactive: -4.41%
CCc1nnc(NC(=O)CSc2nnc(-c3cccnc3)n2CCc2ccccc2)s1	inconclusive [inhibitor, single point]	–
O=C(Nc1ccc2oc(-c3cccc4c(Br)cccc34)nc2c1)c1ccc(Br)cc1	inconclusive [inhibitor, single point]	–
Cc1cc(F)ccc1NC(=O)CCS(=O)(=O)c1cccc2nsnc12	–	inactive: -3.14%
S=C(Nc1ccc(Cl)cc1)NC1CCN(Cc2ccccc2)CC1	inconclusive [inhibitor, full curve]	–
COC(=O)C1=C(CSc2nc3c(cc2C#N)CN(C)CC3)OC(N)=C(C#N)C1c1ccc(F)cc1 (stereo unspecified)	inconclusive [inhibitor, partial curve]	–
CN(CC(=O)Nc1cccc(F)c1)CC(=O)Nc1cccc([N+](=O)[O-])c1	inconclusive [inhibitor, single point]	–
O=C1NC(=S)N/C1=C\c1ccc(N2CCOCC2)cc1	–	inactive: 7.23%
Cc1ccc(S(=O)(=O)NNc2ccccc2)c(C)c1	inconclusive [inhibitor, partial curve, poor fit]	–
COc1ccc(-c2cc(C(=O)N3CC4(C)CC3CC(C)(C)C4)no2)cc1 (stereo unspecified)	–	inactive: 10.1%
CCc1cc(=O)oc2cc(C)c3c(-c4ccc(F)cc4)coc3c12	–	inactive: -14.7%
C=CCNC(=O)c1cc([N+](=O)[O-])cc2c(=O)[nH]c(Nc3ccc(Cl)c(Cl)c3)nc12	–	inactive: -1.82%
COc1ccc(-c2cc3c(=O)n(CC(=O)Nc4ccccc4C(F)(F)F)ccn3n2)cc1OC	inconclusive [inhibitor, partial curve]	–
O=C(Nc1ccc2c(c1)OCO2)C1CCCN(c2nc3ccccc3s2)C1 (stereo unspecified)	inconclusive [activator, single point]	–
O=C(CSc1nc(-c2ccc(Cl)cc2)cs1)Nc1cccc([N+](=O)[O-])c1	inconclusive [inhibitor, single point]	–
O=c1[nH]nc(-c2ccccc2)c2ccccc12	–	inactive: 2.7%
C/C(CC(=O)Nc1ccc(OCc2ccccc2)cc1)=N\NC(=O)C(=O)Nc1ccc(C)c(Cl)c1	inconclusive [inhibitor, single point]	–
Cc1ccc(SCC(=O)Nc2ccc(-c3nnc(-c4ccco4)o3)cc2)cc1	inconclusive [inhibitor, partial curve]	–
